Measurements taken from PubChem BioAssay AID1508649 (National Center for Advancing Translational Sciences (NCATS), 2021).
In all, about 43,000 compounds went through this assay and about 830 (1.9%) were called active. The inconclusive results got no clear call from the source; some entries with a clear call stand among them for comparison. How the source made its calls: active means clear falling dose curves in both reporters; inconclusive means both reporters move, but less clearly or upward; inactive means either reporter flat; the % is the NLuc reporter signal. Potencies of inconclusive entries are left out as doubtful fits.
On the % scale 0 is the no-effect control and ±100 the full control effect; potency means the concentration at half of the fitted maximal effect; tags describe the fitted curve by direction and shape.

Assay: Cell-based coincidence reporter assay to measure PMP22 gene transcription in S16 Pmp22-F2sN cells - Primary screen
Conditions: S16 Pmp22-F2sN Schwann cells (luciferase reporters placed in the Pmp22 gene), FLuc/NLuc coincidence luminescence, 24 h; measured here: NLuc reporter readout, at 57.5 µM (top of the series); activity change, negative = inhibition: at the top concentration
How it was run: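 Luminescent read-out of sequential FLuc and NLuc signals from a reporter embedded in the Pmp22 3' UTR of S16 Schwann cells, taken after 24 h compound exposure at 37C; compounds reducing both signals score as inhibitors of expression.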
With `COc1ccc(NC(=O)Cn2c(=O)cc(C)c3c(C)nn(C)c32)cc1` the Potency was active: 15.8 µM. In the case of `COc1ccc(CNc2nc(-c3ccc(OC)cc3)cc(C(F)(F)F)n2)cc1`, the Potency is reported as inconclusive [phenotype inactive, single point]. For `CCCC(=O)N1CCc2cc(OC)c(OC)cc2C1COc1ccc2c(C)cc(=O)oc2c1` (configuration not stated), the Potency was inconclusive [phenotype inactive, partial curve]. In the case of `CCCCc1ccc(Nc2cc(C)nc(-n3nc(C)cc3C)n2)cc1`, the Potency is reported as active: 15 µM. In the case of `CCN(CC)CCN(C(=O)c1ccco1)c1nc2c(C)c(C)ccc2s1`, the Potency is reported as inconclusive [phenotype inactive, single point]. In the case of `Cc1ccc(Sc2ccc(N3CCCC(C(=O)Nc4ccc(Br)cc4)C3)nn2)cc1` (configuration not stated), the Potency is reported as inconclusive [phenotype inactive, single point]. In the case of `COc1cccc(CNC(=O)CN2C(=O)CCc3cc(S(=O)(=O)N4CCOCC4)ccc32)c1`, the Potency is reported as inconclusive [phenotype inactive, single point]. In the case of `CCc1ccc(NC(=O)Nc2cn(C)c(=O)c3ccccc23)cc1`, the Potency is reported as inconclusive [phenotype inactive, single point]. For `Cc1ccc(C)c(N2C(=O)N(Cc3ccccc3C)c3ccccc3S2(=O)=O)c1`, the “activity change, negative = inhibition” value was inactive: 6.93%. In the case of `Cc1cccc(C)c1-n1ncc(C(=O)NCCCN2CCCCC2)c1C1CCN(C(=O)OC(C)(C)C)CC1`, the Potency is reported as inconclusive [phenotype inactive, single point]. For `O=C(Nc1ccc(Br)cc1)c1ccc(F)c(S(=O)(=O)NC2CCCCCC2)c1`, the Potency was inconclusive [phenotype inactive, partial curve]. In the case of `CCc1c(C)sc2c1CCN(Cc1ccccc1)C2c1ccccc1` (configuration not stated), the Potency is reported as active: 5.75 µM. With `CCCCOc1ccc(C(=O)Nc2cc(-c3ccc(C)cc3)no2)cc1` the “activity change, negative = inhibition” value was inactive: -12.6%. With `CCOC(=O)COc1ccc(/C=C(\C#N)c2nc3ccc(C)cc3[nH]2)cc1OC` the Potency was active: 8.91 µM. In the case of `Cc1ccccc1CNC(=O)Cn1c(C)c2cnn(-c3ccccc3)c(=O)c2c1C`, the “activity change, negative = inhibition” value is reported as inactive: -12.3%. For `CCc1ccc(CN(Cc2ccco2)C(=O)COc2ccccc2Cl)cc1`, the Potency was inconclusive [phenotype inactive, single point]. With `CCCc1oc2ccc(NS(=O)(=O)c3ccc(OCC)cc3)cc2c1C(=O)OCC` the Potency was inconclusive [phenotype inactive, partial curve]. For `Fc1ccc(Nc2nc(SCc3cccc(F)c3)nc3ccccc23)cc1`, the Potency was inconclusive [phenotype inactive, single point]. In the case of `O=C(c1cc(-c2ccc(Br)cc2)n[nH]1)N1CCN(S(=O)(=O)c2ccc(Br)s2)CC1`, the Potency is reported as inconclusive [phenotype inactive, single point]. For `CC(=O)N1CCC2(CC1)OC(=O)C(C)=C2C(=O)NCc1ccccc1Cl`, the “activity change, negative = inhibition” value was inactive: -6.78%. With `CC(=O)Nc1cc(C(=O)NCc2ccc(F)cc2Cl)ccc1Sc1ccc(Cl)cc1` the Potency was inconclusive [phenotype inactive, single point]. In the case of `CCOC(=O)c1cc(-c2ccccc2)n(CCCC(=O)Nc2cccc(Cl)c2C)c1C`, the Potency is reported as inconclusive [phenotype inactive, single point]. With `Cc1c(NC(=O)c2sc3c([N+](=O)[O-])cccc3c2Cl)cccc1-c1nc2ccccc2o1` the Potency was inconclusive [phenotype inactive, single point]. For `CCN(CC)C(=O)Cn1c(=O)n(CCCCCC(=O)NCc2ccccc2Cl)c(=O)c2sccc21`, the Potency was inconclusive [phenotype inactive, single point]. For `O=C(Cn1nc(Cc2cccnc2)c2ccccc2c1=O)Nc1cccc(C(F)(F)F)c1`, the Potency was inconclusive [phenotype inactive, partial curve, poor fit]. In the case of `CCC(=O)OCCCNc1nc(-c2ccc(Cl)cc2)nc2ccccc12`, the Potency is reported as inconclusive [phenotype inactive, single point]. With `CCOc1ccc(-c2nc(SCC(=O)Nc3ccc4c(c3)OCCO4)c(-c3ccc(F)cc3)[nH]2)cc1` the Potency was inconclusive [phenotype inactive, single point]. With `CN(CC(=O)Nc1ccc(F)cc1F)S(=O)(=O)c1ccc(C(=O)N2CCOCC2)s1` the Potency was inconclusive [phenotype inactive, single point]. In the case of `Cc1ccc(C(CC(=O)Nc2cc(C)cc(C)c2)N2Cc3ccccc3C2=O)cc1` (configuration not stated), the Potency is reported as inconclusive [phenotype inactive, single point]. For `CCc1ccc(NC(=O)CN2C(=O)C(c3ccccc3)=NC23CCCCCC3)cc1`, the Potency was inconclusive [phenotype inactive, single point]. With `O=C(CSc1nc2ccsc2c(=O)n1Cc1ccccc1F)NCc1ccccc1` the Potency was inconclusive [phenotype inactive, partial curve, poor fit]. With `CSc1nn(Cc2ccc(Br)cc2)c(N(C(C)=O)C(C)=O)c1S(=O)(=O)c1ccccc1` the Potency was inconclusive [phenotype inactive, single point]. For `CCN(CC)c1ccc(NC(=O)C2COc3ccc(OC)cc3C2)c(C)c1` (configuration not stated), the Potency was active: 11.7 µM. With `O=S(=O)(c1cccc(Cl)c1)c1nnn2c1nc(NC1CCCCCC1)c1sccc12` the Potency was active: 10 µM. In the case of `CCSc1ncc(Cl)c(C(=O)N2CCN(c3ccc(OC)cc3)CC2)n1`, the “activity change, negative = inhibition” value is reported as inactive: 1.97%. For `COc1ccc(CNc2ncnc3c2c(-c2ccccc2)cn3-c2ccccc2)cc1`, the Potency was inconclusive [phenotype inactive, single point]. For `COCCc1nn2c(=O)cc(COC(=O)c3ccc(C(C)(C)C)cc3)nc2s1`, the Potency was inconclusive [phenotype inactive, single point]. In the case of `Cc1nnc(SCC(=O)NCc2ccccc2F)c2nn(-c3ccc(Cl)cc3)c(C)c12`, the Potency is reported as inconclusive [phenotype inactive, partial curve]. In the case of `CC(C)(C)OC(=O)N1CCC(c2c(C(=O)NCc3ccco3)cnn2-c2ccc(F)cc2)CC1`, the Potency is reported as inconclusive [phenotype inactive, single point]. In the case of `CC(C)c1nn2c(=O)cc(COC(=O)c3ccc(NC(=O)CCc4ccccc4)cc3)nc2s1`, the Potency is reported as inconclusive [phenotype inactive, partial curve, poor fit]. For `O=C(CC1(O)C(=O)N(CCc2ccccc2)c2ccc(Br)cc21)c1ccccc1O` (configuration not stated), the Potency was inconclusive [phenotype inactive, partial curve]. For `Cc1ccc(NC(=O)C(Cc2ccccc2)NS(=O)(=O)c2cccc3nsnc23)c(C)c1` (configuration not stated), the Potency was inconclusive [phenotype inactive, single point]. For `CCn1c(C)c(C)c2cc(C(=O)NCCc3ccc(C)cc3)ccc21`, the “activity change, negative = inhibition” value was inactive: 18.3%. For `O=C(c1ccc2c(=O)n(CCc3ccccc3)c(=O)[nH]c2c1)N1CCN(c2ccc(Cl)cc2)CC1`, the Potency was inconclusive [phenotype inactive, partial curve, poor fit]. With `Cc1ccc(N2CCN(C(=O)c3cn(C)c4ccc(S(=O)(=O)N(C)C5CCCCC5)cc4c3=O)CC2C)cc1` (configuration not stated) the Potency was inconclusive [phenotype inactive, single point]. For `Cc1ccc(NC(=O)Cn2c(=O)ccc3cc(S(=O)(=O)N4CCC(C)CC4)ccc32)cc1Cl`, the Potency was inconclusive [phenotype inactive, single point]. In the case of `Cc1ccccc1CS(=O)(=O)Cc1ccc(C(=O)NCc2ccc(F)cc2)o1`, the Potency is reported as inconclusive [phenotype inactive, single point]. With `Cc1cc(-n2c(C)nc3ccccc3c2=O)ccc1NC(=O)c1cccc([N+](=O)[O-])c1` the Potency was inconclusive [phenotype inactive, single point]. In the case of `COc1ccc(-c2cc(C(F)(F)F)nc(SCCC(=O)Nc3c(C)cccc3C)n2)cc1`, the Potency is reported as inconclusive [phenotype inactive, single point]. In the case of `Cc1cccc(-c2nc(SCC(=O)Nc3ccc4c(c3)OCCO4)c(-c3ccccc3)[nH]2)c1`, the Potency is reported as inconclusive [phenotype inactive, single point]. In the case of `Cc1ccc(Cl)cc1N1CCN(C(=O)C2CCN(Cc3nc(-c4cccc(Cl)c4)oc3C)CC2)CC1`, the Potency is reported as inconclusive [phenotype inactive, partial curve]. In the case of `CC(C)(C)OC(=O)N1CCC(c2c(C(=O)NC3CCCCC3)cnn2-c2cccc(Cl)c2)CC1`, the Potency is reported as inconclusive [phenotype inactive, single point]. In the case of `CCOc1ccccc1NC(=O)Cn1nnc(C(=O)Nc2ccc(C)c(C)c2)c1N`, the “activity change, negative = inhibition” value is reported as inactive: -12.8%. For `COc1ccccc1CNC(=O)CCCCn1c(=O)c2ccccc2n(CC(=O)Nc2cc(Cl)ccc2C)c1=O`, the Potency was inconclusive [phenotype inactive, single point]. With `COC(=O)c1c(-c2cccs2)csc1NC(=O)COc1ccc(C(C)C)cc1` the Potency was inconclusive [phenotype inactive, partial curve, poor fit]. For `COc1ccccc1N1CCN(Cc2cc(COC(C)C)c3cccnc3c2O)CC1`, the Potency was active: 3.5 µM. For `COc1ccc(S(=O)(=O)N(C(=O)c2ccncc2)c2ccc3oc(C)c(C(C)=O)c3c2)cc1`, the Potency was active: 12.6 µM.
